Results as given in the supplement of paper PMC8728848.
Some of the results follow.

What was measured:
Experiment in all cases: glycan array binding signal (z-score within array); higher = stronger binding
Details in all cases: glycan notation: IUPAC condensed, linker removed
[1] = molecular target: Gal(b1-4)GlcNAc(b1-2)Man(a1-6)[Man(a1-3)]Man(b1-4)GlcNAc(b1-4)GlcNAc
Outline: (§1)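 Columns mapping to the same glycan were averaged after glycan names were converted to IUPAC-condensed notation. The data come from 3228 arrays in the Consortium for Functional Glycomics database, limited to those with an available protein sequence. Binding is reported as a within-array Z-score averaged across arrays of one protein sequence and across linkers.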

[2] = molecular target: Gal(b1-4)GlcNAc(b1-2)[Gal(b1-4)GlcNAc(b1-4)]Man(a1-3)[Gal(b1-4)GlcNAc(b1-2)Man(a1-6)]Man(b1-4)GlcNAc(b1-4)GlcNAc
Outline: as §1

[3] = molecular target: Gal(b1-4)GlcNAc(b1-2)[Gal(b1-4)GlcNAc(b1-4)]Man(a1-3)[Gal(b1-4)GlcNAc(b1-2)[Gal(b1-4)GlcNAc(b1-6)]Man(a1-6)]Man(b1-4)GlcNAc(b1-4)GlcNAc
Outline: as §1

[4] = molecular target: Gal(b1-4)GlcNAc(b1-2)[Gal(b1-4)GlcNAc(b1-4)]Man(a1-3)[GlcNAc(b1-4)][Gal(b1-4)GlcNAc(b1-2)Man(a1-6)]Man(b1-4)GlcNAc(b1-4)GlcNAc
Outline: as §1

[5] = molecular target: Gal(b1-4)GlcNAc(b1-2)[Gal(b1-4)GlcNAc(b1-4)]Man(a1-3)[GlcNAc(b1-4)][Gal(b1-4)GlcNAc(b1-2)[Gal(b1-4)GlcNAc(b1-6)]Man(a1-6)]Man(b1-4)GlcNAc(b1-4)GlcNAc
Outline: as §1

[6] = molecular target: Gal(b1-4)GlcNAc(b1-2)[Gal(b1-4)GlcNAc(b1-6)]Man(a1-6)[Gal(b1-4)GlcNAc(b1-2)Man(a1-3)]Man(b1-4)GlcNAc(b1-4)GlcNAc
Outline: as §1

[7] = molecular target: Gal(b1-4)GlcNAc(b1-2)[Gal(b1-4)GlcNAc(b1-6)]Man(a1-6)[Gal(b1-4)GlcNAc(b1-2)Man(a1-3)]Man(b1-4)GlcNAc(b1-4)[Fuc(a1-6)]GlcNAc
Outline: as §1

[8] = molecular target: Gal(b1-4)GlcNAc(b1-2)[Gal(b1-4)GlcNAc(b1-6)]Man(a1-6)[GlcNAc(b1-4)][Gal(b1-4)GlcNAc(b1-2)Man(a1-3)]Man(b1-4)GlcNAc(b1-4)GlcNAc
Outline: as §1

[9] = molecular target: Gal(b1-4)GlcNAc(b1-2)[Gal(b1-4)GlcNAc(b1-6)]Man(a1-6)[GlcNAc(b1-4)][Gal(b1-4)GlcNAc(b1-2)[Gal(b1-4)GlcNAc(b1-4)]Man(a1-3)]Man(b1-4)GlcNAc(b1-4)[Fuc(a1-6)]GlcNAc
Outline: as §1

[10] = molecular target: Gal(b1-4)GlcNAc(b1-3)Gal(b1-3)GalNAc
Outline: as §1

[11] = molecular target: Gal(b1-4)GlcNAc(b1-3)Gal(b1-3)GlcNAc
Outline: as §1

[12] = molecular target: Gal(b1-4)GlcNAc(b1-3)Gal(b1-4)Glc
Outline: as §1

[13] = molecular target: Gal(b1-4)GlcNAc(b1-3)Gal(b1-4)GlcNAc
Outline: as §1

[14] = molecular target: Gal(b1-4)GlcNAc(b1-3)Gal(b1-4)GlcNAc(b1-2)Man(a1-3)[Gal(b1-4)GlcNAc(b1-3)Gal(b1-4)GlcNAc(b1-2)Man(a1-6)]Man(b1-4)GlcNAc(b1-4)GlcNAc
Outline: as §1

[15] = molecular target: Gal(b1-4)GlcNAc(b1-3)Gal(b1-4)GlcNAc(b1-2)Man(a1-3)[Gal(b1-4)GlcNAc(b1-3)Gal(b1-4)GlcNAc(b1-2)Man(a1-6)]Man(b1-4)GlcNAc(b1-4)[Fuc(a1-6)]GlcNAc
Outline: as §1

[16] = molecular target: Gal(b1-4)GlcNAc(b1-3)Gal(b1-4)GlcNAc(b1-2)[Gal(b1-4)GlcNAc(b1-3)Gal(b1-4)GlcNAc(b1-6)]Man(a1-6)[Gal(b1-4)GlcNAc(b1-3)Gal(b1-4)GlcNAc(b1-2)Man(a1-3)]Man(b1-4)GlcNAc(b1-4)GlcNAc
Outline: as §1

[17] = molecular target: Gal(b1-4)GlcNAc(b1-3)Gal(b1-4)GlcNAc(b1-2)[Gal(b1-4)GlcNAc(b1-3)Gal(b1-4)GlcNAc(b1-6)]Man(a1-6)[Gal(b1-4)GlcNAc(b1-3)Gal(b1-4)GlcNAc(b1-2)Man(a1-3)]Man(b1-4)GlcNAc(b1-4)[Fuc(a1-6)]GlcNAc
Outline: as §1

[18] = molecular target: Gal(b1-4)GlcNAc(b1-3)Gal(b1-4)GlcNAc(b1-3)Gal(b1-4)GlcNAc
Outline: as §1

[19] = molecular target: Gal(b1-4)GlcNAc(b1-3)Gal(b1-4)GlcNAc(b1-3)Gal(b1-4)GlcNAc(b1-2)Man(a1-3)[Gal(b1-4)GlcNAc(b1-3)Gal(b1-4)GlcNAc(b1-3)Gal(b1-4)GlcNAc(b1-2)Man(a1-6)]Man(b1-4)GlcNAc(b1-4)GlcNAc
Outline: as §1

[20] = molecular target: Gal(b1-4)GlcNAc(b1-3)Gal(b1-4)GlcNAc(b1-3)Gal(b1-4)GlcNAc(b1-2)Man(a1-3)[Gal(b1-4)GlcNAc(b1-3)Gal(b1-4)GlcNAc(b1-3)Gal(b1-4)GlcNAc(b1-2)Man(a1-6)]Man(b1-4)GlcNAc(b1-4)[Fuc(a1-6)]GlcNAc
Outline: as §1

[21] = molecular target: Gal(b1-4)GlcNAc(b1-3)Gal(b1-4)GlcNAc(b1-3)Gal(b1-4)GlcNAc(b1-2)[Gal(b1-4)GlcNAc(b1-3)Gal(b1-4)GlcNAc(b1-3)Gal(b1-4)GlcNAc(b1-6)]Man(a1-6)[Gal(b1-4)GlcNAc(b1-3)Gal(b1-4)GlcNAc(b1-3)Gal(b1-4)GlcNAc(b1-2)Man(a1-3)]Man(b1-4)GlcNAc(b1-4)[Fuc(a1-6)]GlcNAc
Outline: as §1

[22] = molecular target: Gal(b1-4)GlcNAc(b1-3)Gal(b1-4)GlcNAc(b1-3)Gal(b1-4)GlcNAc(b1-3)Gal(b1-4)GlcNAc(b1-2)Man(a1-3)[Gal(b1-4)GlcNAc(b1-3)Gal(b1-4)GlcNAc(b1-3)Gal(b1-4)GlcNAc(b1-3)Gal(b1-4)GlcNAc(b1-2)Man(a1-6)]Man(b1-4)GlcNAc(b1-4)GlcNAc
Outline: as §1

B1: HPA (Helix pomatia), Q2F1K8 (protein)
chain: MQAFYSGLLLLCVVAFAAAQRVQSGKIDCGNDAGWAKVPSDDPGRDNTRELAKNITFASPYCRPPVVLLSITQLDVEQSQNLRVIARLYSVSPTGFKASCYTWHNTKVYSMSISWISIENY
[1]
  glycan array binding signal (z-score): -0.078
[2]
  glycan array binding signal (z-score): -0.109
[3]
  glycan array binding signal (z-score): -0.277
[4]
  glycan array binding signal (z-score): -0.253
[5]
  glycan array binding signal (z-score): -0.211
[6]
  glycan array binding signal (z-score): -0.297
[7]
  glycan array binding signal (z-score): -0.136
[8]
  glycan array binding signal (z-score): -0.347
[9]
  glycan array binding signal (z-score): -0.325
[10]
  glycan array binding signal (z-score): -0.293
[11]
  glycan array binding signal (z-score): -0.058
[12]
  glycan array binding signal (z-score): -0.129
[13]
  glycan array binding signal (z-score): -0.256
[14]
  glycan array binding signal (z-score): 0.695
[15]
  glycan array binding signal (z-score): 0.081
[16]
  glycan array binding signal (z-score): -0.068
[17]
  glycan array binding signal (z-score): 0.032
[18]
  glycan array binding signal (z-score): -0.2
[19]
  glycan array binding signal (z-score): 1.39
[20]
  glycan array binding signal (z-score): 0.137
[21]
  glycan array binding signal (z-score): 0.257
[22]
  glycan array binding signal (z-score): -0.082
